Hit rate of the full screen: of about 270,000 compounds, about 620 (0.23%) were called active. The shares of active, inactive and inconclusive entries below differ from those in the screen. Calls come from the whole dose curve; as a rule, active = well fitted inhibition curve with a large enough effect in the polarisation, with a control signal flat (not every such curve was filed as active); inconclusive = small, poorly fitted or top-dose-only effect, or effect the other way, or a change in a side signal; inactive = no such curve, though single readings can be large or run the other way; the % refers to the polarisation. Where the call is inconclusive, the potency comes from a doubtful curve fit. “Side channel” marks fits to a control or component signal instead of the main read-out.
target: Menin (Homo sapiens) (UniProt O00255); test: qHTS Assay for Inhibitors Targeting the Menin-MLL Interaction in MLL Related Leukemias: Competition With Texas Red Labeled MLL-derived Mutant Peptide; conditions: fluorescence polarization; FP activity change, negative = inhibition: at 61.6 µM (top of the series); for FP activity change, negative = inhibition: % of control where 0% means no effect
UniProt O00255, sequence (O00255 whole entry, looked up): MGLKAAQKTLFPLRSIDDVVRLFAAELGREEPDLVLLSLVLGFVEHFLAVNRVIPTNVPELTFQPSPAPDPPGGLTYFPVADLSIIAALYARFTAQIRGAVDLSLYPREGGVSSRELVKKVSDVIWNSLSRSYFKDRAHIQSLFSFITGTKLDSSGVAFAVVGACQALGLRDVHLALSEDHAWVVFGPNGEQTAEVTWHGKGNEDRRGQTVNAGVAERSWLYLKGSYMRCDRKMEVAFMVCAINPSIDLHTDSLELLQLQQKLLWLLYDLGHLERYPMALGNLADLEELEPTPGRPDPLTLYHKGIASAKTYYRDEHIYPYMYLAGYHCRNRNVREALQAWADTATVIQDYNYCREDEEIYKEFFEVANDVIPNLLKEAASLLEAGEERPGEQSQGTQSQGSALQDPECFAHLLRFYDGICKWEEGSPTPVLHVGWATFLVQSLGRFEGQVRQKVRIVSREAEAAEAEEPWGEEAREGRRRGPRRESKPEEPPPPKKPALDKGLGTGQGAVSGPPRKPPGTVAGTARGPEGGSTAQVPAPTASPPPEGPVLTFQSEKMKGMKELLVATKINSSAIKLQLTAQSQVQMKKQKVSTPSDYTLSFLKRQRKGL
Potency is the fitted concentration of half-maximal effect; tags give direction and shape of the fitted curve or compound fluorescence and quenching.

Potency, inconclusive:
Cc1cccc(NC(=S)NC(=O)c2oc3ccccc3c2C)n1 14.1 µM [inhibitor, partial curve, poor fit]
CC1=CC(C)(C)N(C(=O)CNC2CCCC2)c2cc(C)ccc21 14.1 µM [inhibitor, partial curve]
CCOc1cc(/C=N\Nc2nc(Nc3ccccc3)nc(N3CCOCC3)n2)ccc1OC(=O)c1ccco1 20 µM [inhibitor, single point]
Oc1ccc(/C=N/N=C(c2ccccc2)c2ccccc2)c(O)c1O 15.8 µM [quencher, side channel, partial curve]
Cc1cc(NC(=O)CCNS(=O)(=O)c2cc(Br)cnc2N)ccc1Br 17.8 µM [quencher, side channel, partial curve]
COc1ccc(-n2c(=S)[nH]c3sc4c(c3c2=O)CCc2ccccc2-4)cc1 35.5 µM [quencher, side channel, single point]
N#Cc1c(C(F)(F)F)cc(-c2ccccc2)nc1SCCN1CCOCC1 15.8 µM [fluorescent, side channel, partial curve]
CC1=CC(C)(C)NC(=S)N1c1cccc2cc(S(=O)(=O)O)ccc12 28.2 µM [quencher, side channel, single point]
O=C(N1CCN(Cc2ccc3c(c2)OCO3)CC1)C12CC3CC(CC(C3)C1)C2 39.8 µM [fluorescent, side channel, single point]
COc1ccc(-c2nc3cc(NC(=S)NC(=O)Cc4ccccc4)ccc3o2)cc1 28.2 µM [inhibitor, partial curve]
C=CCOC(=O)C1=C(C)NC(=O)NC1c1ccc(OCC)cc1 (configuration not stated) 39.8 µM [inhibitor, single point]
Cc1cc(F)ccc1S(=O)(=O)NCC1CC2CCC1C2 (configuration not stated) 39.8 µM [fluorescent, side channel, single point]
O=C(/C=C/c1ccccc1)c1cc(Br)ccc(=O)c1O 14.1 µM [quencher, side channel, partial curve]

FP activity change, negative = inhibition, inactive:
O=C(NC1CCCCC1)C(c1cccs1)N(C(=O)c1ccco1)c1ccc2c(c1)OCCO2 (configuration not stated) -11.6%
O=c1[nH]c2cc(Cl)c(O)cc2o1 13.7%
COc1cc(C2C3C(=O)N(c4ccccc4)C(=O)C3ON2c2ccccc2)cc(OC)c1OC (configuration not stated) 4.84%
O=C(c1cccc2ccccc12)N1CCCCC1 -3.01%
